The list shows a part of the results.

This assay deals with T1, OsWOX13 (Oryza sativa, UniProt Q5QMM3 1-267).
T1 sequence: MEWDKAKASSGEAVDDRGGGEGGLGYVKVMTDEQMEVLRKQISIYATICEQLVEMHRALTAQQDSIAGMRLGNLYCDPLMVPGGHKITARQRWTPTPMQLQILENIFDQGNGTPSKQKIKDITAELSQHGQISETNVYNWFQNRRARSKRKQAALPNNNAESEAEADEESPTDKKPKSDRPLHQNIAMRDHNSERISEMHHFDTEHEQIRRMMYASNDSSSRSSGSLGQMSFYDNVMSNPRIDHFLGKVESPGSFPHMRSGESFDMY
Briefly: protein-binding microarray (RPBM); PBS, 2% BSA, 51.3 ng/ul salmon testes DNA, 50 uM zinc acetate, 200 nM TF, 25 C, 1 h; high values mean tight binding. The settings on record: protein: recombinant; tags: N-terminal polyhistidine and DsRed monomer fusion (pET32a); label: CyDye5-dUTP incorporated in the synthesized complementary strand; 3' TTTTT single-stranded linker to array surface; dsDNA, one strand shown. The essentials: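 Transcription factors were made in E. coli BL21-CodonPlus as N-terminal fusions to a polyhistidine tag and DsRed, then purified on Ni–NTA. After primer extension with Cy5-dUTP and blocking with 2% BSA, a custom Agilent array was exposed for 1 h at 25 °C to 200 nM protein in PBS, 2% BSA, salmon testes DNA and 50 µM zinc acetate. Washed arrays were scanned on an Axon 4000B, and the binding signal is per-feature fluorescence intensity in arbitrary units.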
As to “CTATCTTAATTATAGATAGAGAGATAGATAGATATATTTGCGGAGTCACCTAGTGCAG”, the binding signal is 34300 fluorescence intensity (a.u.). The result for “TTAATTTAAATCTTGCTCCAGTTTTGCACCTTATTTGACACGGAGTCACCTAGTGCAG” reads 11100 fluorescence intensity (a.u.); that for “GAGAACTCTAATGAATTAGATTATATTCATGCTTGTTGATCGGAGTCACCTAGTGCAG”, 5820 fluorescence intensity (a.u.). “TTATACGATTAGTCAATTAAACTATTAATTTTGTCACCAACGGAGTCACCTAGTGCAG”: the binding signal is 21000 fluorescence intensity (a.u.). The result for “GTTGCGGGGTGGGTGGTGGCGTTGCGGGAGGAGGAGGGAGCGGAGTCACCTAGTGCAG” reads 12700 fluorescence intensity (a.u.); that for “GAGATTGAATGACACTGAATGAATATTATTGTCGAATGATCGGAGTCACCTAGTGCAG”, 47700 fluorescence intensity (a.u.); that for “TGGATAAATTATTCATACTAATTACATCGTACTTACACTACGGAGTCACCTAGTGCAG”, 9120 fluorescence intensity (a.u.). In the case of “GTCCTCTTTCAATTATATAATATGTTACTTTTGATCACAACGGAGTCACCTAGTGCAG”, the binding signal is 13300 fluorescence intensity (a.u.). As for “GCATCCCAATCAAACATTTCTCAATCCAAACTTAAACTAGCGGAGTCACCTAGTGCAG”, the binding signal is 5840 fluorescence intensity (a.u.). The result for “ATGGTAATTGAATTCTGCCATGATACAAACAGAAAGAAACCGGAGTCACCTAGTGCAG” reads 12000 fluorescence intensity (a.u.); that for “CGTAGTTGATCAATGATCATGTCTTCGTGTTCGTGACCTGCGGAGTCACCTAGTGCAG”, 3620 fluorescence intensity (a.u.); that for “AACACGAAAATTGATATAGCTAACACCCAAATGTATATAACGGAGTCACCTAGTGCAG”, 3160 fluorescence intensity (a.u.). The result for “AAGGATGATTTTATAAATCTATGGGTGACAAGATGAGGGACGGAGTCACCTAGTGCAG” reads 18600 fluorescence intensity (a.u.); that for “ACAAGATTGACCAGGGTTCGCGAAATAAAGCAATAAGATTCGGAGTCACCTAGTGCAG”, 10100 fluorescence intensity (a.u.); that for “ACTATATTAATTAAGAGAGAGTGAAGAGAGGAGGAAACTGCGGAGTCACCTAGTGCAG”, 4440 fluorescence intensity (a.u.).

For the sequence “GTTTTCAGTTATATTTTAACTGTTAGCGACTTAGGCATGGCGGAGTCACCTAGTGCAG”, the binding signal was 3440 fluorescence intensity (a.u.). Under “GTGAAAGTTAATTAAGAGTTCAATGCAACTACTAACAACACGGAGTCACCTAGTGCAG” stands 4860 fluorescence intensity (a.u.); under “GGGTCCAGATTGCCAAGACACAAATTGGGGCCCACTACTCCGGAGTCACCTAGTGCAG”, 3500 fluorescence intensity (a.u.); under “GCCATGATTTTGACAATGTGATGTTACATTAAACTTTTGACGGAGTCACCTAGTGCAG”, 12000 fluorescence intensity (a.u.). The result for “GAAATTAACCAATCAAGCACTTGGCTAGCATAATTCCTTTCGGAGTCACCTAGTGCAG” reads 37800 fluorescence intensity (a.u.); that for “CTGTTAATTGCAAGCACCTTTTCACAATGGAGGACACTAACGGAGTCACCTAGTGCAG”, 27500 fluorescence intensity (a.u.). Under “TAACTAATTAATTAAGCTACTCCGTATTACGCACCGTAGCCGGAGTCACCTAGTGCAG” stands 46800 fluorescence intensity (a.u.). With “TCAATTTGATAGATAGATTTCATAATAGGGTTAAATAAGCCGGAGTCACCTAGTGCAG”, the binding signal is 32600 fluorescence intensity (a.u.).

In the case of “TATCACTAATAATTTAGCTCAGTTTGACAAGACGGATATCCGGAGTCACCTAGTGCAG”, the binding signal is 4380 fluorescence intensity (a.u.).

In the case of “ATTTATTTATATATTTAAATTTAAAGAAAATTAAAAGAACCGGAGTCACCTAGTGCAG”, the binding signal was 3510 fluorescence intensity (a.u.). Under “GTTGATTTCACGACCTGCTCGCTGAGGAATGGAGGTCCAGCGGAGTCACCTAGTGCAG” stands 3180 fluorescence intensity (a.u.); under “AATAGATAGATTGATACCACCACTTAACTATACTAATGCTCGGAGTCACCTAGTGCAG”, 63700 fluorescence intensity (a.u.).

As to “TGACGTAATTAGGCTCAAAAGATTCGTCTCGTAATTTACACGGAGTCACCTAGTGCAG”, the binding signal is 8880 fluorescence intensity (a.u.).

For the sequence “AATATATGATGATTAATGATATAACAATAAGTTCGACAAACGGAGTCACCTAGTGCAG”, the binding signal was 8700 fluorescence intensity (a.u.). The result for “ATTAAGCCTAATTAATCCATCATTAGTAAATATTTACTGTCGGAGTCACCTAGTGCAG” reads 8920 fluorescence intensity (a.u.). Take “GTTTTAGCAAGTGATTGAAAATAACTCATGGGAGCTGTCGCGGAGTCACCTAGTGCAG”: the binding signal is 31800 fluorescence intensity (a.u.). For “TCAAAGTAGATTGACTCCAATTGAACTGGCTTTGGCCGTTCGGAGTCACCTAGTGCAG”, the binding signal was 41200 fluorescence intensity (a.u.). The result for “TCGTTTGATTAACCAGGAATATTCGTCTTAATTTAGCTACCGGAGTCACCTAGTGCAG” reads 28800 fluorescence intensity (a.u.); that for “CAAAATAATTAATTGCATGATCCCGGTTTGTTAGGGGTCGCGGAGTCACCTAGTGCAG”, 48800 fluorescence intensity (a.u.); that for “AGGTAACTGACTGCCACTTTACATTGTGCAGTTAGTGCGTCGGAGTCACCTAGTGCAG”, 24900 fluorescence intensity (a.u.). On to “TTGAATATAATTTGCGTATCCACCGTTTATGTAATCAATCCGGAGTCACCTAGTGCAG”, for which the binding signal is 6490 fluorescence intensity (a.u.). Under “GGATTAATTAGGCTTAATAAATTCGTGTCGCAATTTACATCGGAGTCACCTAGTGCAG” stands 29300 fluorescence intensity (a.u.); under “GTCGTCCTCGCCGCCGTCGCTCTCACCACCACCACACTATCGGAGTCACCTAGTGCAG”, 7960 fluorescence intensity (a.u.).

Take “GCTGTTTAATTAAATTAAATGTAAATGCCTTACAGCTTATCGGAGTCACCTAGTGCAG”: the binding signal was 29000 fluorescence intensity (a.u.). Under “TAGCATGATTTCTTATATATTGACCAAATTTAGCAACAAACGGAGTCACCTAGTGCAG” stands 6230 fluorescence intensity (a.u.); under “TTAATTGGTTTACACATCTTTATCGAACCATGTACATGATCGGAGTCACCTAGTGCAG”, 39900 fluorescence intensity (a.u.). Under “CAAGACACGAACTTGATAGATACAGTAGGACGATGGCATGCGGAGTCACCTAGTGCAG” stands 7940 fluorescence intensity (a.u.).
